Reference: publication PMC4336329 (PLoS ONE, 2015)
In all, about 310,000 compounds went through this assay and about 14,000 (4.5%) showed an effect of 50% or more. Effects have a minus sign here. The list shows a part of the results.

Target: human ether-à-go-go-related gene (hERG) potassium channel (human, UniProt Q12809)
Assay: primary screen, population patch clamp on CHO cells stably expressing hERG
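Further: peak tail current of the secondary pulse compared with the same well before compound.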

human ether-à-go-go-related gene (hERG) potassium channel, sequence (Q12809 whole entry, looked up): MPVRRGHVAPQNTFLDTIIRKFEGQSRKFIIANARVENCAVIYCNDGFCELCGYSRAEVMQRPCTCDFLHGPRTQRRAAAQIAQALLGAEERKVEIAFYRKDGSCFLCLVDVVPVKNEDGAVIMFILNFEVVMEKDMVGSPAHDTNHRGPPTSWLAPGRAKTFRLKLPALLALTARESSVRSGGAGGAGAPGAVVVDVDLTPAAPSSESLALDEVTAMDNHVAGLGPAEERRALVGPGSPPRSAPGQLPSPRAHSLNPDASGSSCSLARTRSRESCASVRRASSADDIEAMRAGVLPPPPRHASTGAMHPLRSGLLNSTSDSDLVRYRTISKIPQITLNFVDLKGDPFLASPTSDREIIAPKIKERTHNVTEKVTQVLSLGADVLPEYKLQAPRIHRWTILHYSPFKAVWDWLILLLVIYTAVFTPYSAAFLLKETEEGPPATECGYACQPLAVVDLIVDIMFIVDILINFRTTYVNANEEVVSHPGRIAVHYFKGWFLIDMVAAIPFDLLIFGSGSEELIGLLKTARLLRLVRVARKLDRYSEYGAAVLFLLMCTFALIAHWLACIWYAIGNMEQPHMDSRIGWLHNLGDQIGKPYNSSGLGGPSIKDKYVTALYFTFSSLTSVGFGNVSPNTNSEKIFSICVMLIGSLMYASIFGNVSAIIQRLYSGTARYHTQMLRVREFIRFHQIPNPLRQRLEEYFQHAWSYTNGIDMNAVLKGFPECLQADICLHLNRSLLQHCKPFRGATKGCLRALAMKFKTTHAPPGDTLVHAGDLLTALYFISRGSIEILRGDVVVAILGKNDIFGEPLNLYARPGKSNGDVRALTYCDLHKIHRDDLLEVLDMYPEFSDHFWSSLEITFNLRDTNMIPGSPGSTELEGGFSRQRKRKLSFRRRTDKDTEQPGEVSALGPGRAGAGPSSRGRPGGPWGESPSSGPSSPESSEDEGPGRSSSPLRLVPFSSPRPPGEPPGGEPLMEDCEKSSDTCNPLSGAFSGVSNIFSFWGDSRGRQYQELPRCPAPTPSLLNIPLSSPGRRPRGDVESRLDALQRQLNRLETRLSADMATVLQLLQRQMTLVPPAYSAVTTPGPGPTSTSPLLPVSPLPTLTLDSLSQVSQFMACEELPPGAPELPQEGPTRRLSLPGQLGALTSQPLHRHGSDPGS

Row | Compound | hERG current change (%, negative = inhibition) at 10uM [%]
1 | O=C(COC(=O)c1ccc(O)cc1)Nc1ccc(Cl)cc1 | -1.41
2 | Cc1ccccc1CNS(=O)(=O)c1ccc2c(c1)C(C)(C)C(=O)N2C | -18.6
3 | COc1ccc(Nc2n[nH]c(N)c2C(N)=O)cc1 | 15
4 | COc1cc2c(cc1O)C(Cc1ccc(O)cc1)[N+](C)([O-])CC2 (centres unmarked) | 18.8
5 | CN(C)/N=C/C=C1\CCC/C(=C/c2cccs2)C1=O | 4.73
6 | COc1ccccc1OCC(=O)Nc1cccc(S(=O)(=O)NC2=NCCCCC2)c1 | -4.65
7 | COc1ccccc1C(=O)Nc1cc(C)on1 | 7.07
8 | COCc1nn2c(N)c(C#N)cnc2c1-c1ccccc1 | 8.24
9 | COc1cc(Cl)ccc1NC(=O)COc1ccccc1C(=O)NN | -15.4
10 | O=C(CNS(=O)(=O)c1ccccc1)N1CCCC1 | 15.3
11 | Cc1ncc([N+](=O)[O-])n1CCOC(=O)NC(NCc1ccccc1)C(Cl)(Cl)Cl (centres unmarked) | -15.8
12 | O=C(COC(=O)CCc1c[nH]c2ccccc12)Nc1ccc([N+](=O)[O-])cc1 | 15.1
13 | CCOC(=O)c1c(N)sc2c(NC(C)=O)cccc12 | 7.86
14 | O=C(N/N=C/c1ccccc1O)C1CCCC1 | 8.05
15 | CC(C)CCNC(=O)CC1Nc2c3ccccc3nc(=S)n2C1=O (centres unmarked) | 10.2
16 | CC(C)(C)c1ccc(C2(C)NC(=O)N(CC(=O)c3ccc[nH]3)C2=O)cc1 (centres unmarked) | -0.164
17 | COc1ccc(-c2nn(C)c(=O)c3ccccc23)cc1NS(C)(=O)=O | -47.3
18 | COc1ccc(/C=N/NC(=O)CNC(=O)c2ccc(S(=O)(=O)N3CCCC3)cc2)c(OC)c1 | 2.95
19 | CCCCN(C)CCCNC(=O)c1cn(C)c2ccc(S(=O)(=O)N(C)C3CCCCC3)cc2c1=O | -75
20 | COc1ccc(C2CC(c3ccc4ccccc4c3)=NN2C(=O)CN2C(=O)CCC2=O)cc1 (centres unmarked) | 7.37
21 | Cc1cccc(C)c1OCC(=O)NC(Cc1c[nH]c2ccccc12)C(=O)O (centres unmarked) | 23.7
22 | COc1cccc(C(=O)CSc2nnnn2C)c1 | 4.88

Row | Compound | hERG current change (%, negative = inhibition) at 10uM [%]
23 | CC1(C)Cc2c(sc3ncn4nc(CCC(=O)O)c(=O)nc4c23)CO1 | 8.68
24 | N#CCCN(C(=O)COC(=O)c1cccc(S(=O)(=O)N2CCCC2)c1)c1ccc(F)cc1 | -26
25 | COCCNC(=O)CNC(=O)c1nn(-c2ccc(OC)c(Cl)c2)c(=O)c2ccccc12 | 6.48
26 | Cc1cc(C(F)F)n2nc(C(=O)Nc3ccc(S(=O)(=O)N4CCCC4)cc3)nc2n1 | 4.87
27 | O=P(Nc1ccccc1)(Nc1ccccc1)Oc1ccc(Cl)cc1 | -17.7
28 | CCCC[C@@H]1CNC(=S)N1CCc1cccc(F)c1 | -0.566
29 | CC1(OC(=O)C2CCCC2)C(=O)C=C2C=C(c3ccsc3)N(CCCCO)C=C2C1=O (centres unmarked) | 1.16
30 | Cn1nc(C(=O)NC(C)(C)C)c2ccccc21 | -0.914
31 | CC(NC(=O)CCC(=O)NC(C)C1COc2ccccc2O1)C1COc2ccccc2O1 (centres unmarked) | -0.222
32 | COc1ccccc1N1CC(C(=O)Nc2cccc(C(=O)O)c2)CC1=O (centres unmarked) | -6.51
33 | COc1cccc(NC(=O)COC(=O)c2ccccc2C(=O)N2CCN(c3ccccc3)CC2)c1 | -11.8
34 | COc1ccc(-c2nn(-c3ccccc3)cc2/C=N/NS(=O)(=O)c2ccccc2)cc1 | 10.2
35 | CCCCNC(=O)c1cc(-c2ccc3c(c2)OCO3)on1 | 7.3
36 | O=C(CCN1C(=O)c2ccccc2C1=O)Nc1ccccn1 | 3.92
37 | CSCCC(C(=O)NC1=NCCS1)N1C(=O)c2ccccc2C1=O (centres unmarked) | -8.43
38 | Br.COc1ccccc1NS(=O)(=O)c1cc(N2Cc3ccccc3C2=N)ccc1N1CCOCC1 | -73.3
39 | COc1ccc(NC(=O)c2cccc(S(=O)(=O)N3CCCC3)c2)cc1OC | -4.78
40 | O=C(COC(=O)CCC(=O)c1ccc(F)cc1)Nc1ccccc1 | -2.84
41 | NNC(=O)CCc1nc2ccccc2[nH]1 | 23.2
42 | CC(=O)c1ccccc1C(=O)N1CCCC(C(=O)c2ccc(C(F)(F)F)cc2)C1 (centres unmarked) | -8.18
43 | O=C1C(=O)N(Cc2cccnc2)C(c2ccccn2)/C1=C(/O)c1ccc(Br)cc1 (centres unmarked) | 11.4
44 | O=C(c1cnn2ccccc12)N1CCc2ccccc21 | 0.772
